{
  "source": "PubChem BioAssay AID588453",
  "about": "(National Center for Advancing Translational Sciences (NCATS), 2011)",
  "note": "The whole screen tested about 390,000 compounds, of which about 4,000 (1%) were called active. Inconclusive results, whose numbers are uncertain, are shown with a selection of clear calls. Calls follow the shape of the dose curve; as a rule, active = well fitted inhibition curve with a large enough effect; inconclusive = small, poorly fitted or top-dose-only effect; inactive = no such curve, though single readings can be large or run the other way. Potencies beside an inconclusive call are fits to weak or partial responses and may not hold up. The source holds several records for some structures; these can differ, active in one and inactive in another. % is scaled to controls: 0 for no effect and ±100 for the full control effect; potency is read from the fitted curve at half-maximal effect; tags tell the direction and shape of the fitted curve.",
  "data": [
    {"biological_target": "Thioredoxin reductase 1, cytoplasmic (Rattus norvegicus) (UniProt O89049)", "sequence (O89049 whole entry, looked up)": "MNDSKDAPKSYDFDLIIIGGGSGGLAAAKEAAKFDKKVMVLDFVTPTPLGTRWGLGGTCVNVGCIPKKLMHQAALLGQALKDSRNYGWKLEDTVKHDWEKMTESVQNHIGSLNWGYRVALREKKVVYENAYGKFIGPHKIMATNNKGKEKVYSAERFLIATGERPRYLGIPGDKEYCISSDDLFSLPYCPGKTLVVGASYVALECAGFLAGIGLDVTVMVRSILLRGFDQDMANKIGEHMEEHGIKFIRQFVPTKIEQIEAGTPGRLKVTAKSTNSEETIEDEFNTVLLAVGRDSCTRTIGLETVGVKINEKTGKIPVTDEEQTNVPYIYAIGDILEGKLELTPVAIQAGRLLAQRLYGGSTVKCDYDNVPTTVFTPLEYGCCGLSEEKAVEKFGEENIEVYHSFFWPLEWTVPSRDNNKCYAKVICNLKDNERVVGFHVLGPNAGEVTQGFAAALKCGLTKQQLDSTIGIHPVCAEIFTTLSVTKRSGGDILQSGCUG", "assay": "qHTS Assay for Inhibitors of Mammalian Selenoprotein Thioredoxin Reductase 1 (TrxR1): qHTS; also: nearly all actives have a fitted effect of over 65% in size", "conditions": "recombinant rTrxR1, NADPH fluorescence consumption, selenite substrate; series mostly up to 114 µM; activity change, negative = inhibition: at the top concentration", "summary_of_the_method": "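Rat TrxR1 (90 nM in the dispensed reagent) was pre-reduced with 400 uM NADPH for 5 min at room temperature, then incubated with compound for 15 min. After 400 uM selenite was added, NADPH fluorescence (Ex 340/Em 450 nm) was followed for 8 min.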", "values": [
      {"smiles": "COc1cc(-c2noc(C)c2C(=O)NCC[C@@H]2CCCN2C)cc(OC)c1OC", "Potency": "inconclusive: 39.8 µM [inhibitor, single point]"},
      {"smiles": "Cn1cncc1C#Cc1ccc2cc(CCO)oc(=O)c2c1", "Potency": "inconclusive: 12.6 µM [inhibitor, partial curve, poor fit]"},
      {"smiles": "O=C(c1ccc(-c2ccc([N+](=O)[O-])cc2)o1)N1CCCCCCC1", "Potency": "active: 5.01 µM"},
      {"smiles": "CCOc1ccc(Sc2cc(C(=O)NCc3ccccc3Cl)c3ccccc3n2)cc1", "activity change, negative = inhibition": "inactive: 21.2% [at 57.1 µM]"},
      {"smiles": "COc1cc(N=c2ssnc2Cl)cc(OC)c1", "Potency": "inconclusive: 14.1 µM [inhibitor, partial curve, poor fit]"},
      {"smiles": "N#Cc1c(C#N)c(SSc2c(C#N)c(C#N)c(N)n2-c2ccccc2)n(-c2ccccc2)c1N", "Potency": "inconclusive: 35.5 µM [inhibitor, partial curve]"},
      {"smiles": "O=C(CSc1ncn[nH]1)c1ccco1", "Potency": "inconclusive: 44.7 µM [inhibitor, single point]"},
      {"smiles": "O=C(O)c1cc(=O)c2c3nc4ccccc4oc-3cc(=O)c2[nH]1", "Potency": "inconclusive: 56.2 µM [inhibitor, partial curve, poor fit]"},
      {"smiles": "O=C(c1ccc2nc(-c3ccco3)c(-c3ccco3)nc2c1)N1CCN(c2ccccc2)CC1", "Potency": "inconclusive: 14.1 µM [inhibitor, full curve]"},
      {"smiles": "Cc1ccc(NCCC(=O)c2ccc(Cl)cc2)cc1", "Potency": "inconclusive: 20 µM [inhibitor, full curve]"},
      {"smiles": "Nc1ncc(Br)cc1S(=O)(=O)NCCC(=O)N1CCN(c2ncccn2)CC1", "activity change, negative = inhibition": "inactive: 6.36%"},
      {"smiles": "Cc1ccc(NC(=O)Cn2c(=O)n(Cc3ccc(C(=O)NCc4ccc5c(c4)OCO5)cc3)c(=O)c3ccccc32)cc1", "activity change, negative = inhibition": "inactive: 12.4%"},
      {"smiles": "O=C(c1ccccc1)c1ccc(N2CCOCC2)cc1", "Potency": "inconclusive: 89.1 µM [inhibitor, single point]"},
      {"smiles": "Cc1cccc(C(=O)NC(=S)Nc2cccc3nc(C)ccc23)c1", "Potency": "inconclusive: 12.6 µM [inhibitor, full curve]"},
      {"smiles": "O=C(NCc1ccco1)c1cc(S(=O)(=O)N2CCCC2)ccc1Cl", "Potency": "inconclusive: 89.1 µM [inhibitor, partial curve]"},
      {"smiles": "COc1ccc(C(C[N+](=O)[O-])c2c(C)cc3ccccn23)cc1", "note": "(stereo not drawn)", "Potency": "inconclusive: 15.8 µM [inhibitor, partial curve]"},
      {"smiles": "Cn1c(=O)c([N+](=O)[O-])c(NCCCn2ccnc2)c2ccccc21", "activity change, negative = inhibition": "inactive: 14.4% [at 57.1 µM]"},
      {"smiles": "CC1CCCCN1S(=O)(=O)c1ccc(C(=O)Nc2nnc(-c3ccccc3Cl)o2)cc1", "note": "(stereo not drawn)", "activity change, negative = inhibition": "inactive: 2.3% [at 57.1 µM]"},
      {"smiles": "O=C(CCl)N1CCN(S(=O)(=O)c2ccc3c(c2)CCC3)CC1", "Potency": "inconclusive: 15.8 µM [inhibitor, full curve, poor fit]"},
      {"smiles": "CC1=C(C(=O)Nc2ccccc2)C(c2ccc[nH]2)n2ncnc2N1", "note": "(stereo not drawn)", "Potency": "active: 39.8 µM"},
      {"smiles": "O=C(CCN1CCCCO1)N1CCCC(N2CCN(c3ccc(F)cc3)CC2)C1", "note": "(stereo not drawn)", "Potency": "inconclusive: 89.1 µM [inhibitor, single point]"},
      {"smiles": "CN(Cc1ccccc1)C(=O)c1cccc(NC(=O)Cc2cccc([N+](=O)[O-])c2)c1", "activity change, negative = inhibition": "inactive: -4.19%"},
      {"smiles": "COc1cccc(C2C=C(Nc3ccccc3)C(=O)N2c2ccccc2)c1", "note": "(stereo not drawn)", "Potency": "inconclusive: 31.6 µM [inhibitor, single point]"},
      {"smiles": "CSc1nc(=S)c2[nH]c(=S)[nH]c2[nH]1", "activity change, negative = inhibition": "inactive: -23.6% [at 57.1 µM]"},
      {"smiles": "C[N+]1(C)CCC(=C2c3ccccc3CC(=O)c3sccc32)CC1", "Potency": "inconclusive: 50.1 µM [inhibitor, partial curve, poor fit]"},
      {"smiles": "CCC(=O)NC(=S)Nc1cccc(NC(=O)c2ccc(Cl)cc2Cl)c1", "Potency": "inconclusive: 5.01 µM [inhibitor, partial curve, poor fit]"},
      {"smiles": "Cc1cccc(NC(=O)COC(=O)c2ccc([N+](=O)[O-])o2)c1C", "Potency": "inconclusive: 22.4 µM [inhibitor, single point]"},
      {"smiles": "C#C[C@]1(O)CC[C@H]2C3CCC4=Cc5oncc5CC4(C)C3CCC21C", "note": "(stereo partly drawn)", "Potency": "inconclusive: 18.9 µM [inhibitor, partial curve, poor fit]"},
      {"smiles": "CCCn1cc(NC(=O)c2cc(-c3ccccc3)on2)cn1", "Potency": "inconclusive: 8.91 µM [inhibitor, single point]"},
      {"smiles": "O=C(c1ccc2c(c1)N(Cc1ccc(Cl)cc1)C(=O)c1ccccc1S2=O)N1CCC(Cc2ccccc2)CC1", "note": "(stereo not drawn)", "activity change, negative = inhibition": "inactive: 29%"},
      {"smiles": "O=C(Cn1ncn2c(cc3ccccc32)c1=O)NCc1ccco1", "Potency": "inconclusive: 39.8 µM [inhibitor, single point]"},
      {"smiles": "COc1ccccc1-c1nnc(NC(=O)CCS(=O)(=O)c2ccccc2)o1", "Potency": "inconclusive: 50.1 µM [inhibitor, single point]"},
      {"smiles": "COc1ccc(CCNC(=O)c2cn(C)c3ccc(S(=O)(=O)N4CCOCC4)cc3c2=O)cc1OC", "Potency": "inconclusive: 89.1 µM [inhibitor, single point]"},
      {"smiles": "CC(C)Cn1c(SCC(=O)Nc2cccc(S(N)(=O)=O)c2)nc2ccccc2c1=O", "activity change, negative = inhibition": "inactive: -21.7% [at 57.1 µM]"},
      {"smiles": "COc1cc2c(NC3CCN(C)CC3)nc(N3CCCCC3)nc2cc1OCCOCCN(C)C", "Potency": "inconclusive: 79.4 µM [inhibitor, single point]"},
      {"smiles": "COc1ccc(OC)c(S(=O)(=O)NCC(c2ccco2)S(=O)(=O)c2ccccc2)c1", "note": "(stereo not drawn)", "Potency": "inconclusive: 50.1 µM [inhibitor, partial curve]"},
      {"smiles": "N=c1c2c(-c3ccccc3)c(-c3ccccc3)n(Cc3ccccc3)c2ncn1CCCn1ccnc1", "activity change, negative = inhibition": "inactive: -3.54%"},
      {"smiles": "CN1C(N)=NC(=O)/C1=C/c1ccc(F)cc1", "activity change, negative = inhibition": "inactive: 12.5%"},
      {"smiles": "CS(=O)(=O)Nc1ccc([N+](=O)[O-])cc1Oc1ccccc1", "Potency": "inconclusive: 37.7 µM [inhibitor, single point]"},
      {"smiles": "O=C(O)c1cccc(NC(=S)NC(=O)c2ccc(-c3ccc(Cl)cc3)o2)c1", "Potency": "inconclusive: 25.1 µM [inhibitor, partial curve]"},
      {"smiles": "Cc1ccc(C(=O)NCc2ccco2)cc1S(=O)(=O)N1CCCCC1", "Potency": "inconclusive: 25.1 µM [inhibitor, single point]"},
      {"smiles": "COc1ccc(-c2ccc(-c3noc(C(C)C)n3)c(OC)n2)cc1", "Potency": "inconclusive: 100 µM [inhibitor, single point]"},
      {"smiles": "Nc1nc(N2CCN(C(=O)c3ccco3)CC2)nc2ccc(Br)cc12", "Potency": "inconclusive: 50.1 µM [inhibitor, partial curve]"}
    ]}
  ]
}
